#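 Values below derive from 48-hour exposures of cells grown in 96-well plates, with endpoints linearly interpolated between the two concentrations bracketing the appropriate inhibition level. The concentration for 50% growth inhibition is given as GI50.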 Activity calls are given as the source filed them. No stated cut-off is given here; in the data, active = GI50 up to about 1.1 µM and inactive = higher.
# Test system: NCI-H322M
# Assay: NCI-60 cell line screen, 48 h
row,Structure (SMILES),GI50
1,CN(C)CCNC(=O)c1cccc2[nH]c(-c3ccncc3)nc12,inactive: 5.66 µM
2,COC1(OC)c2no[n+]([O-])c2CCC1O (centres undefined),inactive: > 100 µM
3,COc1cc([C@@H]2c3cc4c(cc3[C@@H](c3c(O)cc(O)c5c3O[C@H](c3ccc(O)c(O)c3)[C@H](OC(=O)c3cc(O)c(O)c(O)c3)C5)[C@H]3COC(=O)[C@H]23)OCO4)cc(OC)c1O,inactive: 34.8 µM
4,CCCCCCCCCCCCCCNCC(OC)OC,inactive: 16.3 µM
5,C/C(=N\N)C(CN1CCOCC1)C(c1ccccc1)c1c(O)c2ccccc2oc1=O (centres undefined),inactive: > 100 µM
6,CC1(C)C2C=CC1C(=O)CC2 (centres undefined),inactive: > 100 µM
7,O=[N+]([O-])c1ccc(CNC2=NNS(=O)(=O)c3ccccc32)cc1,inactive: > 100 µM
8,COC(=O)C(F)C(Br)C(=O)OC (centres undefined),inactive: 16.7 µM
9,CC(C)(Br)C(=O)N1CCN(C(c2ccccc2)c2ccccc2)CC1,inactive: 19 µM
10,CN(C)CCCNC(=O)c1c(-c2cccnc2)cnc2ccccc12,inactive: > 100 µM
11,C=C(CO)C(=O)OC1CC(=C)C2CC(O)C(C)C2C2OC(=O)C(=C)C12 (centres undefined),inactive: 49.8 µM
12,N#CSC/C(Cl)=C/Cl.N#CSC/C(Cl)=C\Cl,inactive: > 100 µM
13,Cn1c2n/c(=N\c3ccc(Cl)cc3)[n+]3ccc4ccccc4c3c-2c([O-])n1-c1ccccc1,inactive: > 100 µM
14,Cc1ccc(NC(=O)C2C(=O)N(c3ccc(C)c(C)c3)C(=O)/C2=N\NC(N)=S)cc1C (centres undefined),inactive: > 100 µM
15,Cc1ccc(C2CC(c3cccc([N+](=O)[O-])c3)=Nc3ccccc3S2)cc1 (centres undefined),inactive: > 55.2 µM
16,Cc1cnc(SCCN2CCN(C)CC2)nc1-c1cc2ccccc2s1,inactive: 17.9 µM
17,Cc1nc2cccc(F)c2c(=O)n1C1CCCCNC1=O (centres undefined),inactive: > 10 µM

row,Structure (SMILES),GI50
1,CC(=O)c1ccccc1NP(=O)(c1ccccc1)c1ccccc1,inactive: 44.8 µM
2,CN(C)c1ccc(O[Si](Oc2ccc(N(C)C)cc2)(Oc2ccc(N(C)C)cc2)Oc2ccc(N(C)C)cc2)cc1,inactive: > 100 µM
3,CCN(CC)CCNc1n[n+]([O-])c2cc([N+](=O)[O-])ccc2[n+]1[O-],inactive: 2.24 µM
4,CSc1nc(SC)c2cnn(CC3CO3)c2n1 (centres undefined),inactive: 36.6 µM
5,CSC1NC(c2ccccc2)=C(C#N)C(=O)N1C1OCC(OC(C)=O)C(OC(C)=O)C1OC(C)=O (centres undefined),inactive: > 100 µM
6,C=CCOc1ccc(C2c3c(n[nH]c3O)CC(C)(O)C2C(=O)OC)cc1OC (centres undefined),inactive: > 100 µM
7,O=c1c2cc([N+](=O)[O-])ccc2nc2n1CCCCC2,inactive: > 100 µM
8,O=C1C2CN(Cc3ccccc3)CC1CN(CC1CC1)C2,inactive: > 100 µM
9,CC(C)(C)OC(=O)C1=C(C(=O)OC(C)(C)C)SC2(S1)C(C(=O)OC(C)(C)C)=C(C(=O)OC(C)(C)C)Sc1c2ssc1=O,inactive: > 100 µM
10,CC(=O)c1ccc(NC(=O)/C(CC(=O)/C=C/c2ccccc2)=N/NC(N)=S)cc1,inactive: > 100 µM
11,CCCCCCCCCCCCCCCCCCN(C)CC(COP(=O)([O-])OCC[N+](C)(C)C)OC (centres undefined),inactive: 23.2 µM
12,CCOC(=O)CC(NC(=O)c1nc[nH]c1/N=N/N(C)C)C(=O)OCC (centres undefined),inactive: > 100 µM
13,NC(=O)N/N=C\CC(O)(C(F)(F)Cl)C(F)(F)Cl,inactive: > 10 µM
14,CC(C)C1=CC23CCC4C(C)(C(=O)O)CCCC4(C)C2CC1C1C(=O)N(CCCCCCN2C(=O)C4C5CC6C7(C)CCCC(C)(C(=O)O)C7CCC6(C=C5C(C)C)C4C2=O)C(=O)C13 (centres undefined),inactive: 10.6 µM
15,COc1cc(OC)c(SSCCCCS(=O)O)c(OC)c1,inactive: 18.7 µM
16,C=C1C(OC(C)=O)CC(OC(C)=O)C2(C)C(OC(C)=O)C(OC(C)=O)C3=C(C)C(OC(=O)/C=C/c4ccccc4)CC(C(OC(C)=O)C12)C3(C)C (centres undefined),inactive: > 100 µM
17,Cc1nc(C)c(C(=O)NNC(=O)C[N+](C)(C)C)cc1C(=O)NNC(=O)C[N+](C)(C)C,inactive: > 100 µM

# Source: ChEMBL document CHEMBL1201862, “PubChem BioAssay data set” (2004)
